Test results as given in PubChem BioAssay AID2100 (National Center for Advancing Translational Sciences (NCATS), 2009).
Screen size: about 300,000 compounds; about 1,200 (0.4%) were called active. Inconclusive results, whose numbers are uncertain, are shown with a selection of clear calls. Calls follow the shape of the dose curve; as a rule, active = well fitted inhibition curve with a large enough effect; inconclusive = small, poorly fitted or top-dose-only effect, or another doubt; inactive = no such curve, though single readings can be large or run the other way. Potencies beside an inconclusive call are fits to weak or partial responses and may not hold up.

molecular target: Lysosomal alpha-glucosidase (Homo sapiens) (UniProt P10253); assay: qHTS Assay for Inhibitors and Activators of Human alpha-Glucosidase Cleavage of Glycogen; conditions: recombinant GAA, glycogen substrate, Amplex Red glucose oxidase fluorescence; series mostly up to 76.4 µM
Procedure, shortened: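 qHTS, 1536-well; enzyme 4 nM final; cpd up to 77 uM; substrate bovine liver glycogen 30 ug; 50 mM citrate/phosphate pH 5.0, 0.01% Tween-20; 37 C, 40 min; Amplex Red detection 45 min RT; Hill fit → AC50.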
Potency is read from the fitted curve at half-maximal effect.

Row | Compound | Potency
1 | NC(=S)NNC(=O)Nc1cccc(Cl)c1 | inconclusive: 35.5 µM [inhibitor, single point]
2 | CC(C)C1Cc2c(sc3c2c(=O)n(-c2ccccc2)c2n[nH]c(=S)n32)CO1 (configuration not stated) | inconclusive: 17.8 µM [inhibitor, partial curve]
3 | Nc1ccc(N2CCOCC2)c(Cl)c1 | inconclusive: 25.1 µM [inhibitor, single point]
4 | FC(F)(F)c1ccccc1N/N=C/c1cccnc1 | inconclusive: 50.1 µM [inhibitor, single point]
5 | N#Cc1nc(-c2cccs2)oc1NCCCN1CCOCC1 | inconclusive: 17.8 µM [inhibitor, partial curve]
6 | CC(=O)N1CCC(=NNc2ncc(C(F)(F)F)cc2Cl)CC1 | inconclusive: 11.2 µM [inhibitor, partial curve]
7 | CCCNC(=O)c1ccc2c(=O)c(O)c(-c3ccc(C)cc3)[nH]c2c1 | inconclusive: 4.43 µM [inhibitor, full curve]
8 | Nc1ccc(C(=O)Oc2ccc([N+](=O)[O-])cc2)cc1 | inactive
9 | CCN1C=C(Cc2ccc(OC)cc2)C2=C(C1)C(c1ccc(OC)cc1)C(C#N)=C(N)O2 (configuration not stated) | inconclusive: 31.6 µM [activator, partial curve]
10 | O=C1NN(c2ccccc2)C(=O)/C1=C\c1coc2ccc(O)cc2c1=O | inconclusive: 4.47 µM [inhibitor, full curve]
11 | Nc1ccc(Cc2ccc(N)c(O)c2)cc1O | inconclusive: 17.6 µM [activator, partial curve]
12 | COc1ccc2c(c1)c(/C=N/Nc1ccc(C(=O)O)cc1)c(C)n2C | inconclusive: 31.4 µM [inhibitor, single point]
13 | O=C(O)c1ccc(N/N=C/c2ccc(F)c(F)c2)cc1 | inconclusive: 10 µM [inhibitor, full curve]
14 | CC(=O)c1ccc(N2CCC(c3cc(-c4ccc(Cl)cc4)n[nH]3)CC2)c([N+](=O)[O-])c1 | inconclusive: 28.2 µM [inhibitor, single point]
15 | [N-]=C=C1C(=O)NC(=O)C([n+]2ccc(-c3ccncc3)cc2)C1c1ccccc1C(F)(F)F (configuration not stated) | inactive
16 | Nc1cc(F)ccc1N1CCCCCC1 | inconclusive: 39.5 µM [inhibitor, single point]
17 | Cc1ccccc1-n1c(SCC(=O)Nc2c(C)cccc2C)nc(O)cc1=O | inactive
18 | CN(C)c1ccc(C(=O)c2ccc(N(C)C)c(N)c2)cc1N | inconclusive: 25.1 µM [inhibitor, partial curve]
19 | O=C(N/N=C(\Cc1ncc[nH]1)c1ccccc1)c1ccncc1 | inconclusive: 22.4 µM [inhibitor, partial curve]
20 | CCc1ccc(NC(=O)c2cc3c([nH]c2=O)CC(C)(C)CC3=O)cc1 | inactive
21 | CCc1nnc(N/N=C/c2ccc(N3CCC(C)CC3)c([N+](=O)[O-])c2)n1N | inconclusive: 17.8 µM [inhibitor, partial curve]

Row | Compound | Potency
22 | Nc1cc(S(=O)(=O)O)cc([N+](=O)[O-])c1O | inconclusive: 3.16 µM [inhibitor, full curve]
23 | OC[C@H]1O[C@@H](n2cnc3c(NC4CCCC4)ncnc32)[C@H](O)[C@@H]1O | inconclusive: 6.26 µM [inhibitor, single point]
24 | CCCCc1cc(=O)oc2cc(C)cc(OC(C)C(=O)NC(Cc3c[nH]c4ccc(O)cc34)C(=O)O)c12 (configuration not stated) | inconclusive: 14.1 µM [inhibitor, partial curve]
25 | Cc1oc2ccc(O)c(CN3CCCC3)c2c1C(=O)Nc1cccc(Cl)c1C | inactive
26 | CCOC(=O)/C(=N\Nc1cc(Cl)ccc1Cl)N1CCN(CC)CC1 | inconclusive: 28.2 µM [inhibitor, single point]
27 | O=C(CCN1CCN(Cc2ccccc2)CC1)NNC(=O)Nc1cccc(Cl)c1 | inconclusive: 31.6 µM [inhibitor, partial curve]
28 | CC(C)c1ccc(NC(=O)C2(C)Cc3ccccc3C(=O)O2)cc1 (configuration not stated) | inactive
29 | CCNC(=S)N1CCC(c2nc3ccccc3s2)CC1 | inconclusive: 8.91 µM [inhibitor, single point]
30 | Cc1cc(C(C#N)c2cccc(Cl)c2)n2ncnc2n1 (configuration not stated) | inconclusive: 35.5 µM [inhibitor, partial curve]
31 | COc1cccc(CNc2ncc(Br)cc2Br)c1O | active: 24.9 µM
32 | CCNC(=S)/N=C(/Nc1ccccc1)Nc1nc(C)cc(C)n1 | inconclusive: 22.4 µM [inhibitor, partial curve]
33 | COCc1cc(C)nc2sc3c(c12)NC(c1ccc(O)cc1)N(c1ccc(C)cc1)C3=O (configuration not stated) | inconclusive: 28.2 µM [inhibitor, partial curve]
34 | O=[N+]([O-])c1cc(/C=N\Nc2nc(-c3ccccc3)cs2)ccc1O | inconclusive: 9.92 µM [inhibitor, partial curve]
35 | CC1=NNC(=O)C1CCC(=O)N/N=C/C(Br)=C/c1ccccc1 (configuration not stated) | inconclusive: 22.4 µM [inhibitor, single point]
36 | Cc1ncc(CO)c(CNc2ccc(Oc3ccccc3)cc2)c1O | inconclusive: 7.08 µM [inhibitor, full curve]
37 | Cc1nc2ccc(Cl)cn2c1C(=O)NN | inconclusive: 9.92 µM [inhibitor, partial curve]
38 | CCOC(=O)C1=C(C)NC(=O)NC1c1cc(Br)c(O)c(OC)c1 (configuration not stated) | inconclusive: 31.6 µM [inhibitor, partial curve]
39 | CCc1nnc(NC(=O)CSc2nnc(CSc3nc(C)cc(C)n3)o2)s1 | inconclusive: 35.5 µM [inhibitor, single point]
40 | COc1ccc(C2C=C(c3ccccc3)Nc3nc(NC(=O)/C=C/c4ccc(F)cc4)nn32)cc1 (configuration not stated) | inactive
41 | O=C(NC(=S)NNC(=O)c1ccccc1[N+](=O)[O-])c1ccccc1 | inconclusive: 39.5 µM [inhibitor, single point]
42 | Cc1[nH]n(-c2ccccc2)c(=S)c1C=Nc1ccc([N+](=O)[O-])cc1 | inconclusive: 39.5 µM [inhibitor, single point]
